From publication PMC12136788
Some of the results follow.

T1: UNK ZnF1-6 (called full-length) (human, UniProt Q9C0B0 30-357)
T1 sequence: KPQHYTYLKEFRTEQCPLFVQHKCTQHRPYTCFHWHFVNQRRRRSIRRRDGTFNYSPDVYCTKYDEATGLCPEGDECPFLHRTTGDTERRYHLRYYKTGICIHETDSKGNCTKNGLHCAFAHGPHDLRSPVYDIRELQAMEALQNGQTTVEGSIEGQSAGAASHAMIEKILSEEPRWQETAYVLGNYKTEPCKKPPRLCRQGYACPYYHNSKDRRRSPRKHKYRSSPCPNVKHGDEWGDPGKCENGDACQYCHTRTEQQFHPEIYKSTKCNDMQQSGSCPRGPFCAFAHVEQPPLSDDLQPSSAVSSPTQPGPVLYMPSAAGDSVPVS

B1: chr1:42176760:42176861:-|3pUTR|ENSG00000198815|msi1|FALSE|bound_elsewhere (ssRNA)
RNA: GGGAGUUCUACAGUCCGACGAUCGUCGCUCAGAUGUCCUUUGAAGUGGGAGGGAAUCAAUCCGGGGAUAAUUUCAAAUGGAAUAGAGUAUUUUGAUAUUGUUCAUUCAGAGGGUGAUGUGUACAUAUCUAUAUUGUAUAUAUGCAACAGAGGAUUGAGCAUCA
B2: chr1:193029531:193029688:-|CDS|ENSG00000116750|unk|FALSE|unique (ssRNA)
RNA: GGGAGUUCUACAGUCCGACGAUCUUGAUAUCUUCACUUUUAUAUUUUAUAGGUAAUUAAUAAUGCUUGUGCUACUCAAGCCAUAGUGAGUGUGUUACUGAACUGUACCCACCAGGAUGUCCAUUUAGGCGAGACAUUAUCAGACAACAGAGGAUUGAGCAUCA
B3: chr19:39385628:39385990:-|three_prime_utr|ENSG00000006712|control|control|control (ssRNA)
RNA: GGGAGUUCUACAGUCCGACGAUCGUCCCAGGGCAUUCAGGGCUGGUUCAGACACCAUUAUUGUGAGCAGCAAAGCACUUUUCUAGUGGUCUGUUUGUGAGCCUUUCACUUGUUUGUUCCCCACCCCCAAACCUUUGCUGUUAACAACAGAGGAUUGAGCAUCA
B4: chr5:82277714:82277885:-|CDS|ENSG00000186468|unk|total|mutant (ssRNA)
RNA: GGGAGUUCUACAGUCCGACGAUCAACUAAAAUAUUUAAUUUUCCGGCAAGUGUCGUGGACUUCGUACUGCCCGGAAGCUCCGCCGUCACCGACGAGACCAGAAGUGGCAUGAUAAACAGUAUAAGAAAGCUCAUUUGGGCACACAACAGAGGAUUGAGCAUCA
B5: chr1:28742582:28742694:+|CDS|ENSG00000198492|unk|total|mutant (ssRNA)
RNA: GGGAGUUCUACAGUCCGACGAUCAGCAACGGAGAGCCCCACUUCCUACCAGAUGCAAUGUUUGGGCAACCAGGAGCCCCCGGCCGCACUCCAUUUCUUGGUCAGCAUGGUUUUAAUUUCUUUCCCAGUGGGAUUGACUUCUCACAACAGAGGAUUGAGCAUCA
B6: chr3:52707940:52708050:+|3pUTR|ENSG00000114902|msi1_unk|FALSE|overlapping (ssRNA)
RNA: GGGAGUUCUACAGUCCGACGAUCUUUAGUUCUCUUUAUACUUCAUUUCUAGCCCAGUUGGGUUUUGAUUUAUAUAAGUAGUUUAGACCUUCUCUUCAUAAUCUUGCUCUGAGAUGGGGAACAGAACACACAAGUAUGAAGUUUCAACAGAGGAUUGAGCAUCA
B7: chr12:122341087:122341188:-|CDS|ENSG00000130779|unk|FALSE|bound_elsewhere (ssRNA)
RNA: GGGAGUUCUACAGUCCGACGAUCAGAAUUUGCUGAACUAAAAACACAAAUAGAGAAAAUGAGACUAGAUUACCAACACGAAAUAGAAAAUUUGCAGAAUCAACAAGACUCUGAACGGGCUGCCCAUGCUAAAGAGAUGGAAGCCAACAGAGGAUUGAGCAUCA
B8: chr19:35623844:35623945:+|3pUTR|ENSG00000249115|unk|FALSE|unique (ssRNA)
RNA: GGGAGUUCUACAGUCCGACGAUCUGUGUCAAGAGCAGCGGCGGUGACGCAGGUGUAGAGAUUUGUCAGAGCUCAUGUAGUUGUAGUCUUAAGGCCUGUGCAUUUCACUGCGUGGGUUACUCAAUUUAUAAAGCAAAGCCCUUACAACAGAGGAUUGAGCAUCA
B9: chr15:38485071:38485172:+|3pUTR|ENSG00000171262|unk|FALSE|unique (ssRNA)
RNA: GGGAGUUCUACAGUCCGACGAUCUUGCCUCACCUGUAUUGCUGUGGAUGUGUUUUGUGGGUUUUUCAUUCGAUUUUACAAAAUAGGGAAAGGCACUUCCAGUUGUAUUUAGUAGGCAGUUGUUGUGAAUCAUUUUUUUCUCUUCAACAGAGGAUUGAGCAUCA
B10: chr17:5346795:5346911:+|CDS|ENSG00000029725|unk|FALSE|unique (ssRNA)
RNA: GGGAGUUCUACAGUCCGACGAUCAGAACUGAAUCAUUAUCUGGAAGCUGAGAAAUCUUGUAGGACUGAUCUAGAGAUGUAUGUAGCUGUUUUGAAUACUCAGAAAUCUGUUCUACAGGAAGAUGCUGAGAAACUGCGGAAAGACAACAGAGGAUUGAGCAUCA
B11: chr3:168010103:168010202:-|3pUTR|ENSG00000173905|msi1_unk|total|mutant (ssRNA)
RNA: GGGAGUUCUACAGUCCGACGAUCGCUCAAACAUAAAUCUGCCUACUGAACUCCCGGAUAUUUAAUUACAAAAAUUAAGAACUCCGACUUUUUUAAAACUUUUGUAUCCGAAAUGCGCAUACAUUUAUAUGAAUAUAUUUUGAUCAACAGAGGAUUGAGCAUCA
B12: chr1:10178627:10178729:+|CDS|ENSG00000130939|unk|total|mutant (ssRNA)
RNA: GGGAGUUCUACAGUCCGACGAUCUAAGGAAUUGUUUGAAGAAGUUAUUUCAAAGAUGCGGAAGGCAGGGAUCAAAUCCACAACCGCAACCGAAAAAUUUAAGCUGCUCGCCGAGAAAGUGGAGGAGACCGUGGCCAAGAACGCCAACAGAGGAUUGAGCAUCA
B13: ENSG00000116991:stop:overlap|stop_codon|ENSG00000116991|stop_codon|NA|stop_codon (ssRNA)
RNA: GGGAGUUCUACAGUCCGACGAUCCGACAGCUCAGCUGCGGAAAUUCACAGAAUGGUUUUUCACCACCAUCGACAAAAAAUCUUAGCCAAUCCGCACCUCAUCAAGGGACCACUGGGAAAUGCCCCUUGUCCCUUUGAAGUCACCAACAGAGGAUUGAGCAUCA
B14: ENSG00000136451:be:win_1101|CDS|ENSG00000136451|bound_else_gene|NA|bound_elsewhere_windowed (ssRNA)
RNA: GGGAGUUCUACAGUCCGACGAUCGAGACUGUGGGAAGAAGCUGUUAAAGCAAGGAAGAAAGAAGCUGCUAACCUGUGCCAAACCUCCACGGCUGCUACGACACCUGUGACUCUCACUACUCCAUUCAGUAUAACAUCCUCUGUCAACAGAGGAUUGAGCAUCA

Biological target: T1, UNK ZnF1-6 (called full-length)
Experiment: nsRBNS (natural sequence RNA bind-n-seq); RBNS binding buffer (assumed for nsRBNS): 25 mM Tris pH 7.5, 150 mM KCl, 3 mM MgCl2, 0.01% Triton X-100, 500 ug/ml BSA, 20 U/ml SUPERase-In, 4 C; UNK is unkempt and MSI1 is Musashi-1; names of the RNAs are library labels; protein concentration not given here; high values mean tight binding

**Q.** With B1 as the binder, how does the binding signal read?
**A.** The binding signal was 1.26 enrichment R.

**Q.** B2 was tested. Which binding signal did it give?
**A.** Its binding signal is 7.09 enrichment R.

**Q.** With B3 as the binder, how does the binding signal read?
**A.** Its binding signal is 0.94 enrichment R.

**Q.** With B4 as the binder, how does the binding signal read?
**A.** The binding signal was 0.699 enrichment R.

**Q.** B5 was tested. Which binding signal did it give?
**A.** The binding signal was 0.667 enrichment R.

**Q.** How did the binding signal turn out when B6 was run?
**A.** Its binding signal is 3.19 enrichment R.

**Q.** Which binding signal does the source give for B7 here?
**A.** The binding signal was 8.87 enrichment R.

**Q.** Which binding signal does the source give for B8 here?
**A.** The binding signal was 3.16 enrichment R.

**Q.** Which binding signal does the source give for B9 here?
**A.** The binding signal was 0.823 enrichment R.

**Q.** How did the binding signal turn out when B10 was run?
**A.** Its binding signal is 0.722 enrichment R.

**Q.** B11 was tested. Which binding signal did it give?
**A.** Its binding signal is 3.17 enrichment R.

**Q.** For B12, which binding signal is on record?
**A.** The binding signal was 0.628 enrichment R.

**Q.** B13 was tested. Which binding signal did it give?
**A.** Its binding signal is 0.449 enrichment R.

**Q.** For B14, which binding signal is on record?
**A.** Its binding signal is 0.886 enrichment R.
